Data on 74 molecules can be found in the supplement of paper PMC7580552.

Where a name gives a salt, the structure may show the parent alone. The list shows a part of the results. Repeats are few or missing, and single values can be far off.
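Further: stationary (unshaken) cultures in 96-well plates, started at OD600 0.05 from mid-exponential cells, with compounds supplied from DMSO stocks.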

The test system of this assay is Escherichia coli W3110. As to the kind of experiment: planktonic growth (OD600) relative to untreated control; higher = more growth. The following applies: 10 µM; 20-24 h; 30 °C; TB.
In turn, `CN1CCc2cccc3c2[C@H]1Cc1ccc(O)c(O)c1-3` [R(-) Apomorphine hydrochloride hemihydrate] had a planktonic growth of 28%.

Molecule `CC(C)(C(=O)c1cccnc1)c1cccnc1` [Metyrapone] registered a planktonic growth of 95%.

In turn, `O=c1cc(-c2ccc(O)c(O)c2)oc2cc(O)cc(O)c12` [Luteolin] came in with a planktonic growth of 97%.

Consider `CC(C)/N=c1\cc2n(-c3ccc(Cl)cc3)c3ccccc3nc-2cc1Nc1ccc(Cl)cc1` [Clofazimine], for which the planktonic growth is 101%.

In turn, `O=C1Cc2cc(CCN3CCN(c4nsc5ccccc45)CC3)c(Cl)cc2N1` [Ziprasidone Hydrochloride] had a planktonic growth of 115%.

`CCN[C@H]1C[C@H](C)S(=O)(=O)c2sc(S(N)(=O)=O)cc21` [Dorzolamide hydrochloride] had a planktonic growth of 95%.

As for `CC(C)(S)C(N)C(=O)O` (racemic) [D,L-Penicillamine], the planktonic growth worked out at 104%.

Molecule `CC(=O)N(O)CCCCCNC(=O)CCC(=O)N(O)CCCCCNC(=O)CCC(=O)N(O)CCCCCN` [Deferoxamine mesylate] displayed a planktonic growth of 54%.

In turn, `CCCCOC(=O)c1ccc(N)cc1` [Butamben] registered a planktonic growth of 114%.

`CCCCC1=NC2(CCCC2)C(=O)N1Cc1ccc(-c2ccccc2-c2nnn[nH]2)cc1` [Irbesartan]: the planktonic growth amounted to 96%.

As to `N[C@@H]1CCCCN(c2c(F)cc3c(=O)c(C(=O)O)cn(C4CC4)c3c2Cl)C1` [Besifloxacin hydrochloride], the planktonic growth was 29%.

As for `CC[C@H]1OC(=O)[C@H](C)[C@@H](O[C@H]2C[C@@](C)(OC)[C@@H](O)[C@H](C)O2)[C@H](C)[C@@H](O[C@@H]2O[C@H](C)C[C@H](N(C)C)[C@H]2O)[C@](C)(OC)C[C@@H](C)C(=O)[C@H](C)[C@@H](O)[C@]1(C)O` [Clarithromycin], the planktonic growth was determined as 44%.

Regarding `CCOc1ccccc1OCC1CNCCO1` (centres undefined) [Viloxazine hydrochloride], the planktonic growth came out at 95%.

On to `CC(C)(C)C(=O)OCOC(=O)[C@@H]1N2C(=O)[C@@H](NC(=O)[C@H](N)c3ccccc3)[C@H]2SC1(C)C` [Pivampicillin], for which the planktonic growth was found to be 104%.

In the case of `O=C1NCN(c2ccccc2)C12CCN(CCCC(c1ccc(F)cc1)c1ccc(F)cc1)CC2` [Fluspirilen], the planktonic growth is 101%.

In turn, `N=C(N)NC(=O)c1nc(Cl)c(N)nc1N` [Amiloride hydrochloride dihydrate] displayed a planktonic growth of 112%.

`NS(=O)(=O)c1cc(C(=O)O)c(NCc2ccco2)cc1Cl` [Furosemide] displayed a planktonic growth of 94%.

`Cc1cc(C2CCCCC2)n(O)c(=O)c1` [Ciclopirox ethanolamine]: the planktonic growth turned out to be 90%.

Take `COc1cc(C(=O)NS(=O)(=O)c2ccccc2C)ccc1Cc1cn(C)c2ccc(NC(=O)OC3CCCC3)cc12` [Zafirlukast]: the planktonic growth turned out to be 112%.

With `NS(=O)(=O)c1cc2c(cc1Cl)N=CNS2(=O)=O` [Chlorothiazide], the planktonic growth was determined as 92%.

Molecule `CN[C@H](CC(C)C)C(=O)N[C@H]1C(=O)N[C@@H](CC(N)=O)C(=O)N[C@H]2C(=O)N[C@H]3C(=O)N[C@H](C(=O)N[C@H](C(=O)O)c4cc(O)cc(O)c4-c4cc3ccc4O)[C@H](O)c3ccc(c(Cl)c3)Oc3cc2cc(c3O[C@@H]2O[C@H](CO)[C@@H](O)[C@H](O)[C@H]2O[C@H]2C[C@](C)(N)[C@H](O)[C@H](C)O2)Oc2ccc(cc2Cl)[C@H]1O` [Vancomycin hydrochloride] registered a planktonic growth of 66%.

Take `CNS(=O)(=O)Cc1ccc2[nH]cc(CCN(C)C)c2c1` [Sumatriptan succinate]: the planktonic growth is 104%.

In turn, `CC(C)COCC(CN(Cc1ccccc1)c1ccccc1)N1CCCC1` (centres undefined) [Bepridil hydrochloride] gave a planktonic growth of 111%.

The molecule `NC(=O)c1ncn([C@@H]2O[C@H](CO)[C@@H](O)[C@H]2O)n1` [Ribavirin] showed a planktonic growth of 94%.

`CCOC(=O)[C@H](CCc1ccccc1)N[C@@H](C)C(=O)N1[C@H](C(=O)O)C[C@@H]2CCC[C@@H]21` [Ramipril] returned a planktonic growth of 92%.

Consider `CCOc1ccc2c(c1)C(C)=CC(C)(C)N2` [Ethoxyquin], for which the planktonic growth was found to be 99%.

Take `Cc1ccnc2c1NC(=O)c1cccnc1N2C1CC1` [Nevirapine]: the planktonic growth came to 102%.

On to `CN(C)CCC=C1c2ccccc2CCc2ccccc21` [Amitryptiline hydrochloride], for which the planktonic growth is 100%.

`Cc1[nH]c(=O)c(C#N)cc1-c1ccncc1` [Milrinone]: the planktonic growth was 89%.

Molecule `Cn1c(=O)c2[nH]cnc2n(C)c1=O` [Aminophylline] had a planktonic growth of 92%.

Molecule `CS(=O)(=O)c1ccc(C2=C(c3ccccc3)C(=O)OC2)cc1` [Rofecoxib] came in with a planktonic growth of 103%.

With `CN1C(C(=O)Nc2ccccn2)=C(O)c2sccc2S1(=O)=O` [Tenoxicam], the planktonic growth was found to be 98%.

As to `Cc1ncc([N+](=O)[O-])n1CC(O)CCl` (centres undefined) [Ornidazole], the planktonic growth was 100%.

Take `Cc1cccc(C)c1NC(=O)C1CCCCN1C` (centres undefined) [Mepivacaine hydrochloride]: the planktonic growth is 102%.

In turn, `C=C[C@H]1CN2CC[C@H]1C[C@@H]2[C@@H](O)c1ccnc2ccc(OC)cc12` [Quinidine hydrochloride monohydrate] came in with a planktonic growth of 97%.

On to `C[C@]12CC[C@H]3C(=CCc4cc(O)ccc43)[C@@H]1CCC2=O` [Equilin], for which the planktonic growth was determined as 111%.

For the molecule `CO[C@@]1(NC(=O)Cc2cccs2)C(=O)N2C(C(=O)O)=C(COC(N)=O)CS[C@@H]21` [Cefoxitin sodium salt], the planktonic growth was 23%.

As to `CC(=O)c1ccc2c(c1)N(CCCN1CCC(CCO)CC1)c1ccccc1S2` [Piperacetazine], the planktonic growth is 106%.

In the case of `O=C(CCCN1CCC(O)(c2ccc(Br)cc2)CC1)c1ccc(F)cc1` [Bromperidol], the planktonic growth was found to be 86%.

The molecule `COc1cc2c(cc1OC)C(=O)C(CC1CCN(Cc3ccccc3)CC1)C2` (centres undefined) [Donepezil hydrochloride] gave a planktonic growth of 99%.

The molecule `CCCCC(CC)CN1CN(CC(CC)CCCC)CC(C)(N)C1` (centres undefined) [Hexetidine] showed a planktonic growth of 92%.

In turn, `COCC1=C(C(=O)OC(C)OC(=O)OC(C)C)N2C(=O)[C@@H](NC(=O)/C(=N\OC)c3csc(N)n3)[C@H]2SC1` (some centres undefined) [Cefpodoxime proxetil] yielded a planktonic growth of 97%.

The molecule `CCN(CC)CCOC(=O)C(c1ccccc1)C1CCCCC1` (centres undefined) [Drofenine hydrochloride] came in with a planktonic growth of 92%.

In turn, `COc1cc(Cc2cnc(N)nc2N)cc(OC)c1OC` [Trimethoprim] registered a planktonic growth of 50%.

As to `CNCCC(Oc1ccccc1OC)c1ccccc1` (centres undefined) [Nisoxetine hydrochloride], the planktonic growth was 94%.

Molecule `CCCCC(C)(O)C/C=C/[C@H]1[C@H](O)CC(=O)[C@@H]1CCCCCCC(=O)OC` (mixture of isomers) [Misoprostol] showed a planktonic growth of 97%.

`COc1ccccc1O` [Guaiacol]: the planktonic growth is 90%.

`O=C(O)CCC(=O)Nc1ccc(S(=O)(=O)Nc2nccs2)cc1` [Succinylsulfathiazole] had a planktonic growth of 92%.

The molecule `COc1cnc(NS(=O)(=O)c2ccc(N)cc2)nc1` [Sulfameter] returned a planktonic growth of 67%.

`Cc1cccc(CN2CCN(C(c3ccccc3)c3ccc(Cl)cc3)CC2)c1` (centres undefined) [Meclozine dihydrochloride] gave a planktonic growth of 99%.

Regarding `CCOC(=O)C1=C[C@]2(CC)CCCN3CCc4c(n1c1ccccc41)[C@@H]32` [Vinpocetine], the planktonic growth worked out at 93%.

As to `C[C@]12CC[C@@H]3c4ccc(O)cc4CC[C@H]3[C@@H]1CCC2=O` [Estrone], the planktonic growth worked out at 95%.

On to `COc1cc(C(=O)NC2CCCNC2)cc(OC)c1OC` (centres undefined) [Troxipide], for which the planktonic growth worked out at 118%.

With `CN(C)[C@@H]1C(O)=C(C(N)=O)C(=O)[C@@]2(O)C(O)=C3C(=O)c4c(O)ccc(Cl)c4[C@@](C)(O)[C@H]3C[C@@H]12` [Chlortetracycline hydrochloride], the planktonic growth came to 21%.

Molecule `CC(=O)N(CC(C)C(=O)O)c1c(I)cc(I)c(N)c1I` (centres undefined) [Iocetamic acid] showed a planktonic growth of 94%.

In turn, `c1ccc2[nH]c(-c3cscn3)nc2c1` [Tiabendazole] had a planktonic growth of 96%.

In turn, `CN1CC2c3ccccc3Oc3ccc(Cl)cc3C2C1` (centres undefined) [Asenapine maleate] showed a planktonic growth of 93%.

As for `CC1CS(=O)(=O)CCN1/N=C/c1ccc([N+](=O)[O-])o1` (centres undefined) [Nifurtimox], the planktonic growth came to 90%.

With `COc1ccc(-c2cc(=O)c3c(O)cc(O[C@@H]4O[C@H](CO[C@@H]5O[C@@H](C)[C@H](O)[C@@H](O)[C@H]5O)[C@@H](O)[C@H](O)[C@H]4O)cc3o2)cc1O` [Diosmin], the planktonic growth amounted to 97%.

Regarding `CCCCCCCN(CC)CCCC(O)c1ccc(NS(C)(=O)=O)cc1` (centres undefined) [Ibutilide fumarate], the planktonic growth stood at 108%.

Consider `CCOC(=O)OC(C)OC1=C(C(=O)Nc2ccccn2)N(C)S(=O)(=O)c2ccccc21` (centres undefined) [Ampiroxicam], for which the planktonic growth turned out to be 93%.

Turning to `CC(=O)[C@H]1CC[C@H]2[C@@H]3C[C@H](C)C4=CC(=O)CC[C@]4(C)[C@H]3[C@@H](O)C[C@]12C` [Medrysone], the planktonic growth worked out at 99%.

Regarding `CCCCNC(=O)NS(=O)(=O)c1ccc(C)cc1` [Tolbutamide], the planktonic growth came out at 86%.

In turn, `O=C(O)c1cc(-c2ccc(F)cc2F)ccc1O` [Diflunisal] returned a planktonic growth of 108%.

In turn, `CC(C)(C)NC[C@H](O)c1ccc(O)c(CO)c1` [Levalbuterol hydrochloride] yielded a planktonic growth of 99%.

Turning to `CCn1cc(C(=O)O)c(=O)c2cnc(N3CCCC3)nc21` [Piromidic acid], the planktonic growth worked out at 111%.

Regarding `O=S(=O)(O)CCS` [Mesna], the planktonic growth was 105%.

`CNCCC(Oc1ccc(C(F)(F)F)cc1)c1ccccc1` (centres undefined) [Fluoxetine hydrochloride]: the planktonic growth worked out at 99%.

In the case of `Cc1nc2n(c(=O)c1CCN1CCC(c3noc4cc(F)ccc34)CC1)CCCC2` [Risperidone], the planktonic growth is 94%.

The molecule `CC(=O)Nc1ccc(CC(=O)O)cc1` [Actarit] registered a planktonic growth of 95%.

For the molecule `C[C@@H](CN1CC(=O)NC(=O)C1)N1CC(=O)NC(=O)C1` [Dexrazoxane hydrochloride], the planktonic growth worked out at 108%.

In turn, `OCc1cc(C(O)CNCCCCCCOCCCCc2ccccc2)ccc1O` (centres undefined) [Salmeterol] yielded a planktonic growth of 98%.

In the case of `CC(=O)OCC(=O)[C@@]12N=C(C)O[C@@H]1C[C@H]1[C@@H]3CCC4=CC(=O)C=C[C@]4(C)[C@H]3[C@@H](O)C[C@@]12C` [Deflazacort], the planktonic growth stood at 92%.

Regarding `O=C(O)Cc1sc(-c2ccccc2)nc1-c1ccc(Cl)cc1` [Fentiazac], the planktonic growth came out at 93%.
